Assay results: ChEMBL document CHEMBL1201862, “PubChem BioAssay data set” (2004)

tested on: NCI-H322M; experiment: NCI tumour cell line growth inhibition, 48 h

**Q.** For N=C1N(S(=O)(=O)c2ccccc2)[C@@H](Cc2ccccc2)[C@H](c2ccccc2)C1(c1ccccc1)c1ccccc1, which GI50 is on record?
**A.** inactive: > 100 µM

**Q.** With O=C(/C=C/c1ccccc1)CCC1C(=O)c2ccccc2C1=O as the molecule, how does the GI50 read?
**A.** inactive: > 100 µM

**Q.** With Cc1cc(=O)oc2c(CNC(C)C(=O)O)c(O)ccc12 (stereo unspecified) as the molecule, how does the GI50 read?
**A.** inactive: > 100 µM

**Q.** With CC(=O)NNc1nc(C)c(C(=O)/C=C/c2ccccc2Cl)s1 as the molecule, how does the GI50 read?
**A.** inactive: > 100 µM

**Q.** For O=C1CC2c3ccccc3CCC2c2ccccc21 (stereo unspecified), which GI50 is on record?
**A.** inactive: 46.2 µM

**Q.** Which GI50 does the source give for CCOP(=O)(C[S+](C)[O-])O[C@@H]1C[C@H](C)CC[C@H]1C(C)C (stereo partly specified) here?
**A.** inactive: 7.43 µM

**Q.** With C=CCOC(C)n1c(C)cc(=O)n(C(C)OCC=C)c1=O (stereo unspecified) as the molecule, how does the GI50 read?
**A.** inactive: > 100 µM

**Q.** For CCc1cccc(C(C)C)c1NC(=O)C(=O)C(Cc1nc2ccccc2nc1O)C(=O)OC (stereo unspecified), which GI50 is on record?
**A.** inactive: > 100 µM

**Q.** With Cc1ccc(C)n1-c1ccccc1C1C=Cn2c(=O)oc3c(OC(C)C)c(OC(C)C)c(O)c1c32 (stereo unspecified) as the molecule, how does the GI50 read?
**A.** inactive: 23.4 µM

**Q.** For CNC1C(OC2C(OC3C(O)C(O)C(O)C(O)C3O)OC(C)C2(O)CO)OC(CO)C(O)C1O.N=C(N)N.NC(=O)O (stereo unspecified), which GI50 is on record?
**A.** inactive: > 100 µM

**Q.** Which GI50 does the source give for Oc1nc2cc(Cl)ccc2nc1/C(=N\Nc1ccccc1)C(O)c1ccc(Cl)c(Cl)c1 (stereo unspecified) here?
**A.** inactive: > 100 µM

**Q.** COc1cc(C(=O)C/C(CCC(=O)Nc2ccc(Cl)cc2C)=N/NC(=O)C(N)=O)ccc1O was tested. Which GI50 did it give?
**A.** inactive: > 100 µM

**Q.** O=C1CC2CC(CC3(CO3)C2)C1F (stereo unspecified) was tested. Which GI50 did it give?
**A.** inactive: > 100 µM

**Q.** With CN(C)c1ccc(/C=C2\N=C(c3ccccc3)N(/N=C3\C(=O)Nc4ccccc43)C2=O)cc1 as the molecule, how does the GI50 read?
**A.** inactive: > 100 µM

**Q.** O=C(Nn1c(-c2ccccc2)nc2ccccc2c1=O)c1ccccc1O was tested. Which GI50 did it give?
**A.** inactive: 71.4 µM

**Q.** COc1ccc(C=C2C(=O)NC(=S)NC2=O)c2ccccc12 was tested. Which GI50 did it give?
**A.** inactive: 44.2 µM

**Q.** Which GI50 does the source give for Cc1ccc2[nH]/c(=N/S(=O)(=O)c3cc(C)c(Cl)cc3S)[nH]c2c1 here?
**A.** inactive: 50.9 µM

**Q.** With O=C1C(Cl)C2(CC(/C=C/c3ccccc3O)=NN2c2cccc(S(=O)(=O)O)c2)N1c1nc2ccccc2s1 (stereo unspecified) as the molecule, how does the GI50 read?
**A.** inactive: 29 µM

**Q.** For CCOC1(COP(=O)(OCc2ccccc2)OCc2ccccc2)COC(COP(=O)(OCc2ccccc2)OCc2ccccc2)(OCC)CO1 (stereo unspecified), which GI50 is on record?
**A.** inactive: > 100 µM

**Q.** How did the GI50 turn out when Nc1ncnc2c1sc(=S)n2-c1ccccc1 was run?
**A.** inactive: > 100 µM

**Q.** Which GI50 does the source give for CO/C=C(/C(=O)OC)c1ccccc1[C@H]1C[C@@H]1c1ccccc1 here?
**A.** inactive: 35.6 µM

**Q.** Which GI50 does the source give for CCOC(=O)C1(O)C(=O)C2=C3C(=O)OC(C4OC(=O)c5c(c(O)c(O)c(O)c5C31)-c1c(cc(O)c(O)c1O)C(=O)OC1COC(=O)c3cc(O)c(O)c(O)c3-c3c(cc(O)c(O)c3O)C(=O)OC14)[C@@H]2O (stereo partly specified) here?
**A.** inactive: 14.9 µM

**Q.** NC(=S)NNC(=O)CCC(=O)Nc1ccc(Cl)cc1Cl was tested. Which GI50 did it give?
**A.** inactive: > 100 µM

**Q.** For COc1ccccc1CC1(O)OC(=O)c2ccccc21 (stereo unspecified), which GI50 is on record?
**A.** inactive: > 100 µM

**Q.** How did the GI50 turn out when CCCN1CCC(=O)N(CCC(F)(F)C(F)(F)C(F)(F)C(F)(F)C(F)(F)C(F)(F)F)C1=S was run?
**A.** inactive: > 100 µM

**Q.** O=C1NC2ON=C(c3ccccc3)C2C2ON=C(c3ccccc3)N12 (stereo unspecified) was tested. Which GI50 did it give?
**A.** inactive: > 100 µM

**Q.** Which GI50 does the source give for O=C1C[C@H]2CCCN2[C@@H](c2ccccc2)C1 here?
**A.** inactive: > 100 µM

**Q.** For CCOc1cc(C2CC(c3ccc(NS(=O)(=O)c4cc([N+](=O)[O-])ccc4C)cc3)=NN2)ccc1O (stereo unspecified), which GI50 is on record?
**A.** inactive: 25.1 µM

**Q.** C=CCN1C(=O)N/C(=C\c2ccc(Cl)cc2)C1=O was tested. Which GI50 did it give?
**A.** inactive: > 100 µM

**Q.** For Cn1c(=O)n2n(c1=O)C(S(=O)(=O)c1ccccc1)C2 (stereo unspecified), which GI50 is on record?
**A.** inactive: > 100 µM

**Q.** Which GI50 does the source give for Nc1ccc(C(=O)c2cn(CCN3CCOCC3)c3ccccc23)c2ccccc12 here?
**A.** inactive: 39.6 µM

**Q.** Which GI50 does the source give for COc1cccc(C2c3cc4c(cc3OC(N3CCCCC3)C2C)OCO4)c1OC (stereo unspecified) here?
**A.** inactive: 17.3 µM

**Q.** How did the GI50 turn out when Cc1ccccc1C(C#N)/C(=N/NC(=O)c1cc2ccccc2cc1O)C(=O)Nc1cccc(Cl)c1 (stereo unspecified) was run?
**A.** inactive: 20 µM

**Q.** With CCO[C@@]12CCC3CC4CC[C@@](OCC)(O1)C4C32 (stereo partly specified) as the molecule, how does the GI50 read?
**A.** inactive: > 100 µM

**Q.** Which GI50 does the source give for CCN1C(=O)/C(=C\Nc2ccccc2)S/C1=N/Nc1ncc(CC(=O)Nc2ccccc2C)s1 here?
**A.** inactive: > 100 µM

**Q.** Which GI50 does the source give for Cc1cccc2c1[C@]13OC(C)[C@]4(C)CC5OC(=O)[C@@]1(C)[C@@H]5[C@]34C(=O)O2 (stereo partly specified) here?
**A.** inactive: > 100 µM

**Q.** How did the GI50 turn out when CC(C)N1C(C)[C@@H](c2ccccc2)O[P@@]1(=O)CC1=CCCCC1 (stereo partly specified) was run?
**A.** inactive: > 99.5 µM

**Q.** CC(C(=O)N1C(=O)N(C(=O)[C@H](C)C(O)c2ccccc2)[C@H](c2ccccc2)[C@H]1c1ccccc1)[C@@H](O)c1ccccc1 (stereo partly specified) was tested. Which GI50 did it give?
**A.** inactive: 42.3 µM

**Q.** CC1(C)C(O)C[C@]23CCC[C@](C)(C[C@@H](O)C12)C3 (stereo partly specified) was tested. Which GI50 did it give?
**A.** inactive: > 100 µM

**Q.** With CC1OC(c2ccc3c(OCc4ccccc4)cccc3c2O)CC(OCc2ccccc2)[C@H]1OCc1ccccc1 (stereo partly specified) as the molecule, how does the GI50 read?
**A.** inactive: > 10 µM

**Q.** How did the GI50 turn out when COc1cc(/C=C\c2ccc(C)cc2)cc(OC)c1OC was run?
**A.** active: 0.0108 µM

**Q.** For COc1cc2c(c(OC)c1OC)-c1ccc(SC)c(=O)cc1[C@@H](NC(=O)c1ccc(OC(C)=O)cc1)CC2, which GI50 is on record?
**A.** active: 0.0389 µM

**Q.** O=c1c2cc([N+](=O)[O-])ccc2n2n1CCCCC2 was tested. Which GI50 did it give?
**A.** inactive: > 100 µM

**Q.** How did the GI50 turn out when COc1cc2c(cn1)[nH]c1ccccc12 was run?
**A.** inactive: > 100 µM

**Q.** How did the GI50 turn out when Sc1nn2c(Cc3ccccc3)nnc2s1 was run?
**A.** inactive: > 100 µM

**Q.** With COc1ccc(/N=c2/[nH]c(N)c(C(=O)c3ccc(OC)cc3)s2)cc1 as the molecule, how does the GI50 read?
**A.** active: 0.668 µM

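48-hour exposure; five concentrations; linearly interpolated endpoints. The concentration for 50% growth inhibition is given as GI50.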 The source made the active and inactive calls. No stated cut-off is given here; in the data, active = GI50 up to about 1.1 µM and inactive = higher.
